According to PubChem BioAssay AID1508624 (National Center for Advancing Translational Sciences (NCATS), 2021):
Hit rate of the full screen: of about 48,000 compounds, about 120 (0.25%) were called active. Not shown: some 4% with an inconclusive outcome. Calls come from the whole dose curve; as a rule, active = well fitted activation curve with a large enough effect; inconclusive = small, poorly fitted or top-dose-only effect, or another doubt; inactive = no such curve, though single readings can be large or run the other way. This is one part of the list.

assay: Primary qHTS for Identification of Small Molecule Activators of Huntingtin-Antisense Promoter Activity; details: HEK293 HTT-AS promoter firefly luciferase reporter (activity 0% = vehicle and -100% = no light), 24 h; series mostly up to 57.5 µM; activity change, positive = activation: at the top concentration; note: nearly all actives have a fitted effect of over 55% in size
Summary of the method: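 HEK293 Fluc reporter, 2,500 cells/well, 24 h pre-culture; cpds up to 57.5 uM final, 24 h 37 degrees C; Dual-Glo, 10 min RT; normalized vehicle = 0%, zero RLU = -100%.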

Activity change, positive = activation, inactive:
COc1ccc(CNC(=O)c2ccc(CS(=O)(=O)c3ccc(OC)cc3)o2)cc1 -20.5%
COc1ccc(C(=O)Nc2cc3cc(Cl)ccc3oc2=O)cc1OC -5.87%
Cc1nn(CCC(=O)N2CCN(c3ccccc3F)CC2)c(C)c1S(=O)(=O)N1CCCC1 -18%
CCOC(=O)c1cc2c(=O)n3ccccc3nc2n(CCCOC)c1=NC(=O)c1c(-c2ccccc2Cl)noc1C -18.3%
CCCS(=O)(=O)NCCc1csc2nc(-c3ccc(C)cc3)nn12 -27.3%
CCOc1ccc(NC(=O)C2CCCN(c3nn4cc(-c5ccc(OC)cc5)nc4s3)C2)cc1 (stereo unspecified) -32.7%
Cc1nc2nc(C)c(NS(=O)(=O)c3ccc(F)cc3)c(=O)n2[nH]1 -4.3%
O=C(Cn1cnc(S(=O)(=O)N2CCCC2)c1)Nc1cccc(F)c1 -10.6%
Cc1ccccc1OCCCn1c(CCNC(=O)C2CCCCC2)nc2ccccc21 -21.8%
Cc1ccc(-n2ncc(C(=O)N3CCN(C4CCCCC4)CC3)c2C2CCN(C(=O)OC(C)(C)C)CC2)cc1C -2.56%
CN(C(=O)Cn1c(=O)n(CCC(=O)NCc2ccc3c(c2)OCO3)c(=O)c2sccc21)c1ccccc1 -9.18%
Cc1ccc(NC(=O)c2sc3nc4n(c(=O)c3c2C)CCCCC4)c(Br)c1 -3.59%
COCCN(Cc1ccco1)C(=O)c1cc2c(Cl)nc3ccc(C)cc3c2s1 -7.4%
CCN(CC)CCCNC(=O)CSc1nc2nc(C)c(Cc3ccccc3C)c(C)n2n1 10.1%
COc1ccc(NC(=O)Cn2nc(SC)c(S(=O)(=O)c3ccc(C)cc3)c2N)cc1OC -9.27%
COc1ccc(-n2nc(C(=O)NCCCOC(C)C)c3c4ccccc4n(C)c3c2=O)cc1 -0.12%
O=C(Nc1c(Cl)cccc1Cl)c1cccc2c1C(=O)N(C1CCCCC1)C2 2.36%
O=C(O)c1ccc2oc(=O)n(Cc3ccccc3)c2c1 1.94%
Fc1ccccc1N1CCN(c2ncnc3c2nc2n3CCCCC2)CC1 -31%
CCC(=O)N1CCc2cc(Br)cc(S(=O)(=O)CCC(=O)N(C)c3cccc(C)c3)c21 -4.53%
CCOc1cc(C2C(C(=O)Nc3ccccc3)=C(C)Nc3ncnn32)cc(Br)c1O (stereo unspecified) -20%
Cc1cc2c(cc1S(=O)(=O)N(CCO)Cc1ccccc1)OCC(=O)N2 -8.81%
COc1ccc(NC(=O)CN2C(=O)CSc3ccc(S(=O)(=O)N(C)C)cc32)cc1OC 6.22%
CCNS(=O)(=O)c1cc(-c2nnc(Nc3cccc(C(F)(F)F)c3)c3ccccc23)ccc1C -42.3%
O=C(NC(Cc1cc(=O)[nH]c2ccccc12)C(=O)O)c1ccc(Cl)cc1 (stereo unspecified)
CCc1cccc(CC)c1N(COC)C(=O)Cn1c(CC)nc2ccccc21 21.5%
Cc1ccc(C)c(NC(=O)CCS(=O)(=O)c2cccc3nsnc23)c1 -15.3%
Cc1ccc(NC(=O)Cn2c(CCC(=O)O)ccc2-c2cccs2)cc1Cl -19.8%
Cn1c(=O)oc2cc(S(=O)(=O)N3CCCC(C(=O)N4CCN(c5ccc(Cl)cc5)CC4)C3)ccc21 (stereo unspecified) -33%
Cc1ccc(C)c(N2CCN(C(=O)C3CCN(S(=O)(=O)c4ccc5[nH]c(=O)oc5c4)CC3)CC2)c1 -31.2%
CCc1ccc2nc(N3CCN(C(=O)c4ccccc4)CC3)sc2c1 -12%
Cc1cccc(N2CCN(C(=O)CCCn3c(=O)[nH]c4ccsc4c3=O)CC2)c1C -27.3%
CCCCCCc1c(C)c2c(cc(C)c3c(C)c(C)oc32)oc1=O -28.3%
O=C1CC(c2nc3ccccc3n2CCC2CCCCC2)CN1c1ccccc1Cl (stereo unspecified) -22.4%
Oc1c(C(c2ccccc2F)N2CCC3(CC2)OCCO3)sc2nc(-c3ccco3)nn12 (stereo unspecified) -9.7%
CCCCN(C(=O)Nc1ccc(Cl)cc1)C1CCN(C(C)=O)CC1 1.52%
CC(=O)c1cccc(NC(=O)C2=CC(c3ccc(F)cc3)=NS(=O)(=O)N2C)c1 -22.8%
O=C(NC1CCCCC1)c1ccc(CSc2nc3ccncc3n2Cc2ccccc2)cc1 -3.88%
Cc1ccc2onc(CC(=O)N3CCN(c4ccc(Cl)cc4)CC3)c2c1 -13.9%
CCN(c1ccc(Cl)cc1)S(=O)(=O)c1nnc(NC(=O)c2ccco2)s1 -32.7%
COc1ccc(OC)c(CNC(=O)c2ccc(Sc3ccc(Cl)cc3)c(NC(C)=O)c2)c1 -27.2%
O=C(NCCc1ccccc1)c1ccc(Cn2c(=O)c3cccn3c3cccnc32)cc1 -17.7%
COc1ccc(Nc2nc3c(S(=O)(=O)c4ccccc4)nnn3c3ccc(Cl)cc23)c(OC)c1 11.9%
CC(C)(C)NC[C@H](O)COc1cccc2c1CCCC2=O -10.6%
CC(C)c1ccc(NC(=O)c2cn(C3CCCCC3)c(=O)c3c2c2ccccc2n3C)cc1 -15.9%
Cc1ccccc1NC(=O)N1CCc2cc(S(=O)(=O)N3CCC(C)CC3)ccc21 2.57%
CC(C)c1cc(C(C)C)c(CC(=O)NS(=O)(=O)Oc2c(C(C)C)cccc2C(C)C)c(C(C)C)c1 -9.75%
COc1ccc(-c2nc(C)c(CCNC(=O)c3ccc(F)c(F)c3)s2)cc1 4.44%
COc1ccccc1C1=NS(=O)(=O)N(C)C(C(=O)Nc2cc(OC)c(OC)c(OC)c2)=C1 -9.52%
CC(C)Cn1cc(NC(=O)NCc2ccccc2)c2ccccc2c1=O -16.5%
Cc1ccc2c(c1)c1c(c(=O)n(-c3cccc(Cl)c3)c(=O)n1CC(=O)c1ccc(Cl)cc1)n2C -7.56%
CCCCn1c(=N)c(S(=O)(=O)c2ccccc2)cc2c(=O)n3cccc(C)c3nc21 5.54%
Cc1nc2nc(SCC(=O)Nc3cccc(Cl)c3)nn2c(C)c1Cc1ccccc1 -31.4%
COC(=O)c1cccc(NC(=O)N(C)CCc2c(C)nn(C)c2C)c1 -0.826%
Cc1ccc(CNC(=O)c2cccc(N3CCCS3(=O)=O)c2)cc1 -22.5%
CN(C(=O)CSc1nc2ccc(NC(=O)c3ccccc3F)cc2s1)c1ccccc1 -39.6%
C[N+](C)(C)CCOC(N)=O -7.63%
CCCCn1cc(S(=O)(=O)c2ccc(OCC)cc2)c(=O)c2cc(OC)c(OC)cc21 2.54%
CCc1ccc(-n2nc3ccc(NC(=O)c4cc(Cl)c(OC)c(Cl)c4)cc3n2)cc1 -3.36%
CCOc1ccc(CNC(=O)Cn2nc(C)n3cccc3c2=O)cc1 -0.218%
Cc1ccc(NC(=O)CN(CCc2ccccc2)S(=O)(=O)c2ccccc2)c(C)c1 -25.4%
COc1ccc(CN2CCc3nc(Nc4ccccc4)ncc3C2)c(OC)c1OC -24.9%
Cc1ccc(CNC(=O)Cn2c(=O)n(Cc3ccccc3)c(=O)c3c2c2cc(C)ccc2n3C)cc1 -9.08%
COc1cc(N2C(=O)CSC23C(=O)N(C)c2ccccc23)cc(OC)c1OC (stereo unspecified) -6.86%
CCOc1ccc(N2CC(C)Cn3c2nc2c3c(=O)n(CC(=O)O)c(=O)n2C)cc1 (stereo unspecified) -0.964%
COCCN1Cc2cccc(C(=O)Nc3ccc(C)c(F)c3)c2C1=O -12%
Cc1cc(C)cc(NC(=O)C(=O)NCC(c2ccc3c(c2)OCO3)N2CCOCC2)c1 (stereo unspecified) -2.99%
Cc1ccc(CNC(=O)CCS(=O)(=O)c2cc3c(cc2Cl)NC(=O)CO3)cc1 -7.88%
COc1ccc(N2CCN(CC(O)COc3ccc(C)cc3C)CC2)cc1 (stereo unspecified) 2.56%
CC1=C(c2ccc(C)cc2)S(=O)(=O)NC1=NCCCN1CCN(c2cc(C)ccc2C)CC1 -35.2%
Cc1ccc(Cl)cc1N1CCN(C(=O)CN2C(=O)COc3ccc(S(=O)(=O)N4CCC(C)CC4)cc32)CC1 -17.4%
COc1ccc(N2CCN(c3ncnc4c3cnn4-c3ccc(C)c(Cl)c3)CC2)cc1 17.9%
CC(C)(C)C(=O)NC1(C(F)(F)F)NC(=O)N(c2ccc(F)cc2)C1=O (stereo unspecified) -8.13%
O=C(NCc1ccc(Cl)cc1)c1ccc(NC(=O)N2CC3CCCN3c3ccccc32)cc1 (stereo unspecified) -23.8%
Cc1nn(C(=O)c2ccccc2)c(C)c1S(=O)(=O)N1CCOCC1 -11.1%
COc1ccc(CNC(=O)c2ccc(-c3nc(CSc4ccc(C)cc4)c(C)o3)cc2)cc1OC 0%
CCC(=O)N1CCc2cc(S(=O)(=O)NC(C(=O)NCc3ccccc3Cl)C(C)C)ccc21 (stereo unspecified) 20.1%
Cc1c(C(=O)NCc2ccccc2Cl)sc2nc(-c3ccc(F)cc3)cn12 -0.334%
O=C(NCc1ccc(F)cc1)c1cc(Sc2ccc(F)cc2F)nc2ccccc12 -21%
CCOC(=O)CN(Cc1ccccc1)C(C(=O)NC1CCCCC1)c1ccc(C)cc1 (stereo unspecified) -24.2%
CCOC(=O)C1CCN(C(=O)Cn2c(-c3cccs3)cc3cc(Cl)ccc32)CC1 -30.3%
CCOc1ccccc1CNS(=O)(=O)c1ccc2c(c1)C(C)(C)C(=O)N2C -29.9%
CNc1nc(Nc2ccc(C(=O)N3CCOCC3)cc2OC)ncc1Cl -8.87%
COc1ccc(-c2oc3cc(OC)ccc3c2C(=O)c2ccc(C#N)cc2)cc1 -32.6%
COc1ccc(N2C(=O)CSC23C(=O)N(Cc2ccccc2F)c2ccccc23)cc1Cl (stereo unspecified) -37.7%
O=S(=O)(NCc1ccccc1Cl)c1ccc(-c2cnc(C3CC3)o2)cc1 -34.3%
Cc1c(CC(=O)N2CCCCC2)c(=O)oc2cc3occ(C(C)(C)C)c3cc12 -6.93%
COc1ccc(-c2cn3cccnc3n2)cc1NC(=O)COc1ccccc1 -3.86%
CCC1=Nc2cc(C(=O)NCc3ccccc3OC)ccc2Sc2ccc(Cl)cc21 -14.6%
COCCNc1ncnc2c1cnn2-c1cc(Cl)ccc1C 1.96%
Cn1nc(C(=O)NCc2cccc(Cl)c2)c2c1-c1ccccc1SC2 -3.37%
CN1CCN(C(c2ccc(Cl)cc2Cl)c2sc3nc(-c4ccco4)nn3c2O)CC1 (stereo unspecified) 2.85%
Cc1ccc(S(=O)(=O)C2(C(=O)Nc3ccc(C)c(Cl)c3)CC2)cc1 -19.4%
CCC(=O)N1c2ccccc2CC1C(=O)NCCc1ccccc1Cl (stereo unspecified) -5.49%
Cc1ccc(OCC(=O)Nc2ccc(OCc3cc(=O)n4ccsc4n3)cc2)cc1 3.04%
COC(=O)c1cc(NC(=O)[C@H](CCS(C)(=O)=O)N2Cc3ccccc3C2=O)cc(C(=O)OC)c1 -18.5%
